# Results from paper PMC13423814.
# For part of its entries the source gives two or more results. Only these are listed. The source may hold further records. Some protein pairs were linked at several places, one record each.
# Experiments:
# Conditions in all cases: DSSO, in cells
# SNU13 = SNU13 (UniProt P55769)
# YWHAZ = YWHAZ (UniProt P63104)
# SF3A3 = SF3A3 (UniProt Q12874)
# TASOR = TASOR (UniProt Q9UK61)
# OCIAD1 = OCIAD1 (UniProt Q9NX40)
# SRP68 = SRP68 (UniProt Q9UHB9)
# PDIA3 = PDIA3 (UniProt P30101)
# S100A6 = S100A6 (UniProt P06703)
# SLC7A11 = SLC7A11 (UniProt Q9UPY5)
# SLC7A5 = SLC7A5 (UniProt Q01650)
# TIMM50 = TIMM50 (UniProt Q3ZCQ8)
# NUP205 = NUP205 (UniProt Q92621)
# SNRPD3 = SNRPD3 (UniProt P62318)
# YWHAE = YWHAE (UniProt P62258)
# SRP9 = SRP9 (UniProt P49458)
# Sequence of UniProt P49458 (P49458 whole entry): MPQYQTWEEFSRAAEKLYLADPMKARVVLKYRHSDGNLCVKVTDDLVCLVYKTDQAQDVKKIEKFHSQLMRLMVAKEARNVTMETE
# Sequence of UniProt Q01650 (Q01650 whole entry): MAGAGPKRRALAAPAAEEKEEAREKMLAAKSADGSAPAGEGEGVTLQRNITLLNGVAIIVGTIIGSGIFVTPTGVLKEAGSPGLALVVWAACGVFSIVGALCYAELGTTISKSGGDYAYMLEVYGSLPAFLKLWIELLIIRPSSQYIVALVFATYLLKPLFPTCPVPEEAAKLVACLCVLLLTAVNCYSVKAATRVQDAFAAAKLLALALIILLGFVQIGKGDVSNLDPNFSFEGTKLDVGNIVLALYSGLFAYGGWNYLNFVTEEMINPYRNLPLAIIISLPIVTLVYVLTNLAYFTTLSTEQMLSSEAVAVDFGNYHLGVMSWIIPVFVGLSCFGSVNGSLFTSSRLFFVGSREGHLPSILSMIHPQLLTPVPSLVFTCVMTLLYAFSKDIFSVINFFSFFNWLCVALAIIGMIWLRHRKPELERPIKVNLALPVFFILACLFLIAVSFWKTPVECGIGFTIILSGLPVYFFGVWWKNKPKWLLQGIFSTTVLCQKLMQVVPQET
# Sequence of SRP14 (P37108 whole entry): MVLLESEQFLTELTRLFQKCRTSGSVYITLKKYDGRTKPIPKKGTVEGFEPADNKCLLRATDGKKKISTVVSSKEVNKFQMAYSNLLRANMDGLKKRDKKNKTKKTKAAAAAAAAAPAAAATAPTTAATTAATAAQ
# Sequence of SNRPA1 (P09661 whole entry): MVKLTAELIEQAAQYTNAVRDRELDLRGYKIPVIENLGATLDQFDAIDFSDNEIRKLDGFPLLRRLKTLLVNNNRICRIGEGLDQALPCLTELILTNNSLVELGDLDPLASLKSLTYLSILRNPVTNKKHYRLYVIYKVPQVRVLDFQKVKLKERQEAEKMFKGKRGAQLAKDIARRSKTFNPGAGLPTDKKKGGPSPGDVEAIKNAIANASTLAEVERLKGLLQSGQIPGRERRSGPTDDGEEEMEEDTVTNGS
# Sequence of PHB2 (Q99623 whole entry): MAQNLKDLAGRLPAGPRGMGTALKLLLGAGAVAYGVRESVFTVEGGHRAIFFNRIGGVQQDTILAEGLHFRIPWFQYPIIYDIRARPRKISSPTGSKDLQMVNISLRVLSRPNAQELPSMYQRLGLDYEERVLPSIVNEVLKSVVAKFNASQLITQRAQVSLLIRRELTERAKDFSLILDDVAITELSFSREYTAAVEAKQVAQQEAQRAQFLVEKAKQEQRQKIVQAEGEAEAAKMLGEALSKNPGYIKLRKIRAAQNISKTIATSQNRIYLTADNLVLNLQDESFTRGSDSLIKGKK
# Sequence of UniProt Q9UK61 (Q9UK61 whole entry): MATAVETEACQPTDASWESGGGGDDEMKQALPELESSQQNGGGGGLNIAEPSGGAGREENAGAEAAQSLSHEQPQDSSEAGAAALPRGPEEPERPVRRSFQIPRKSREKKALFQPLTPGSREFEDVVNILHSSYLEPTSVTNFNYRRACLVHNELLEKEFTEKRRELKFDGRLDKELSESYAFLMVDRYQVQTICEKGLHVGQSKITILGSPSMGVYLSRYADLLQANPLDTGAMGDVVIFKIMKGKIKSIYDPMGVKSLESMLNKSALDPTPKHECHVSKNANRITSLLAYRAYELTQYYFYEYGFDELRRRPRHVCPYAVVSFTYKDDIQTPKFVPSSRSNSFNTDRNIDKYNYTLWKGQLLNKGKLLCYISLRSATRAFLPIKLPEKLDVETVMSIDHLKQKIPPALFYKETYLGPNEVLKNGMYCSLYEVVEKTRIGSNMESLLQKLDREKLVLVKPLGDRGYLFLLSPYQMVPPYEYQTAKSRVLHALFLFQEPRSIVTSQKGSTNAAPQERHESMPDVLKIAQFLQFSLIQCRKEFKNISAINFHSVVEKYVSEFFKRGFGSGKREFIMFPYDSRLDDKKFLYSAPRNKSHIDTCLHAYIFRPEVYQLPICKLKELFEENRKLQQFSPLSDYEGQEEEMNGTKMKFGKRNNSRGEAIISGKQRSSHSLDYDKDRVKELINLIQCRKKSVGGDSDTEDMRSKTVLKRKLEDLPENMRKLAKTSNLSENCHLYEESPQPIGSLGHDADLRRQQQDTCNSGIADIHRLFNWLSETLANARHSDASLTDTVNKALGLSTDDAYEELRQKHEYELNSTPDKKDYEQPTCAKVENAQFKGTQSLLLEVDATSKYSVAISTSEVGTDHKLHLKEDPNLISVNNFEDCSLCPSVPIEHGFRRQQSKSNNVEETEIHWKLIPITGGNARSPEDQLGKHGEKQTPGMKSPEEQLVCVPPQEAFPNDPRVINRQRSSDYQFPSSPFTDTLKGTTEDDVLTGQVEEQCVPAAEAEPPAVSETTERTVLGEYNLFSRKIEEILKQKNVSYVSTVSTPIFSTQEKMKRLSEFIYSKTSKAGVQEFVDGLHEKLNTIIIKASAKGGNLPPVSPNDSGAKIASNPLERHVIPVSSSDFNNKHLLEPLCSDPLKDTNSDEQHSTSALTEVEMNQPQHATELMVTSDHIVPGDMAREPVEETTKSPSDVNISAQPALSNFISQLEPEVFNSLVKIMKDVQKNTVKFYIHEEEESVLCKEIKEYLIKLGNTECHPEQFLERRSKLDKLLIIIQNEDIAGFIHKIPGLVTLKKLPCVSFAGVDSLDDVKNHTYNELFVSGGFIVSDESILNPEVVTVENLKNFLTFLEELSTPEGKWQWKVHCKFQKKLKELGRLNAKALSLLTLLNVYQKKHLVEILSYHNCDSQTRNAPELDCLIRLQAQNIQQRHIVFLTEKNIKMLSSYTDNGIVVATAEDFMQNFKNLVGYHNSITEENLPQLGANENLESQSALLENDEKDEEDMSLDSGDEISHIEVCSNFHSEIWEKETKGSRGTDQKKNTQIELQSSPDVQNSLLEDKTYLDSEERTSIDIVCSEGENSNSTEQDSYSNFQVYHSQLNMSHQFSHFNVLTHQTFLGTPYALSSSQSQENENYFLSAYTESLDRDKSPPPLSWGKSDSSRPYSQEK
# Sequence of UniProt P55769 (P55769 whole entry): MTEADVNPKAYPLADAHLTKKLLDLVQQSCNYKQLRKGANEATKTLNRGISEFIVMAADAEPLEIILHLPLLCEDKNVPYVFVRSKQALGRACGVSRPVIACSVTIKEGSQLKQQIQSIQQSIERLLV
# Sequence of UniProt P62318 (P62318 whole entry): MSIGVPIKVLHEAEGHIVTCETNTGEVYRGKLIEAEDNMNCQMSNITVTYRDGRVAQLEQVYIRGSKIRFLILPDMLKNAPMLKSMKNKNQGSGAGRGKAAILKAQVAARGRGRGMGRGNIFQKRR
# Sequence of UniProt Q9NX40 (Q9NX40 whole entry): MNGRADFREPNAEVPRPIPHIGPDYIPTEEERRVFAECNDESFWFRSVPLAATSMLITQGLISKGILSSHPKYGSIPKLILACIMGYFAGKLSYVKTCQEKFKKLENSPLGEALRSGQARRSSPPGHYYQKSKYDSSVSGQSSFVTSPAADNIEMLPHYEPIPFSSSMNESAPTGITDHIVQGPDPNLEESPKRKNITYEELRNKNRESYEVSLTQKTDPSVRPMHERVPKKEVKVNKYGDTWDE
# Sequence of SNRPB2 (P08579 whole entry): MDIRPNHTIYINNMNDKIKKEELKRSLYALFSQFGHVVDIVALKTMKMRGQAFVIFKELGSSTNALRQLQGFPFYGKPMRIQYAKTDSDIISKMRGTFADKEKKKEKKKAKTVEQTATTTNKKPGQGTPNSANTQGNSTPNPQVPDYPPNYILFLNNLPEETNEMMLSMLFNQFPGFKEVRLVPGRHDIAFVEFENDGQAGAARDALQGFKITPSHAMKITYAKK
# Sequence of UniProt Q12874 (Q12874 whole entry): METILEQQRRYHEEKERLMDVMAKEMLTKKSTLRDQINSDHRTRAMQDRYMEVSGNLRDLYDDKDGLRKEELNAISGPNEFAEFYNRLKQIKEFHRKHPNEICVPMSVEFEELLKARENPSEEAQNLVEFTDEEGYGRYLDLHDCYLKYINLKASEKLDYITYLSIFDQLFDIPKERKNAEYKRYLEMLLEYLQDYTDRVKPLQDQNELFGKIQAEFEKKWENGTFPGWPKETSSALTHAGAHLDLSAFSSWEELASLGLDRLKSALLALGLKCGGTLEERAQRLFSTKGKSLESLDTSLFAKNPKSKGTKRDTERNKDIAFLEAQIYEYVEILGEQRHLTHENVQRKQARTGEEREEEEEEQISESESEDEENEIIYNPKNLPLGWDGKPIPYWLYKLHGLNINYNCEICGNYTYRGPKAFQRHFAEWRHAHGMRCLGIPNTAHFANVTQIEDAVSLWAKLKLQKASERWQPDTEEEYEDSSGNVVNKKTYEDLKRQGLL
# Sequence of NOP56 (O00567 whole entry): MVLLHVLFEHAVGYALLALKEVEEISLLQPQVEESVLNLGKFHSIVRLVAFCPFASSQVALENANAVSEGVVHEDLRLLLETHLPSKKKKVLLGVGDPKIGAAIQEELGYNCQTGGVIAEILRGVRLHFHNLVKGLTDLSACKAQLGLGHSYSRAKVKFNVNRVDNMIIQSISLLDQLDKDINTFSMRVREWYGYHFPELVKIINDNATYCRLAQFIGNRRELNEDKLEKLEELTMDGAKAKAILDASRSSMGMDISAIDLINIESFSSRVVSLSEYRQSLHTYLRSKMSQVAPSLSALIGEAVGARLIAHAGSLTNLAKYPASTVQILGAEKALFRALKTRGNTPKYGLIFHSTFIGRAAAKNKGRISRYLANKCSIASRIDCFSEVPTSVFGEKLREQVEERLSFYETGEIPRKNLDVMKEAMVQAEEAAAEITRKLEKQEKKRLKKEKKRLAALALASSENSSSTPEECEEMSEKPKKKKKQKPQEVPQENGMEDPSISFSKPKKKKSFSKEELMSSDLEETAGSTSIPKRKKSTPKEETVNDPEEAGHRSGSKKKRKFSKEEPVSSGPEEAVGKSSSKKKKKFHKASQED
substance,measurement,setting,value
"NOP56, O00567",cross-linked residues,SNU13,K158 - K9 and K396 - K86 and K422 - K86
"YWHAE, P62258",cross-linked residues,YWHAZ,K69 - K11 and K73 - K3
"SNRPA1, P09661",cross-linked residues,SF3A3,K56 - K64 and K172 - K64 and K179 - K69
"MPHOSPH8, Q99549",cross-linked residues,TASOR,K623 - K507 and K626 - K507 and K847 - K507 and K847 - K586
"PHB2, Q99623",cross-linked residues,OCIAD1,K89 - K131 and K89 - K195 and K262 - K195
"SRP72, O76094",cross-linked residues,SRP68,K536 - S415 and K600 - K107
"CANX, P27824",cross-linked residues,PDIA3,K89 - K226 and K90 - K226
"ALDH1A1, P00352",cross-linked residues,S100A6,K410 - K26 and K412 - K26
"SLC3A2, P08195",cross-linked residues,SLC7A11,K59 - K4 and K65 - K30 and K144 - K222 and K154 - K222 and K197 - K222
same,cross-linked residues,SLC7A5,K44 - K19 and K44 - K30 and K46 - K19 and K46 - K25 and K46 - K30 and K59 - K25 and S64 - K30 and K65 - K19 and K65 - K25
"SLC25A3, Q00325",cross-linked residues,TIMM50,K101 - T46 and K209 - T46
"NUP54, Q7Z3B4",cross-linked residues,NUP205,K363 - K892 and K371 - K892
"SNRPB2, P08579",cross-linked residues,SNRPD3,K93 - K78 and K93 - K84 and K101 - K84
"YWHAB, P31946",cross-linked residues,YWHAE,K13 - K69 and K13 - K78
"SRP14, P37108",cross-linked residues,SRP9,T45 - K24 and T45 - K76 and K55 - K76 and S73 - K76 and K74 - K76 and K78 - K76 and K95 - K60
